# In the supplement of paper PMC8728848:
# Some of the results follow.
# How the values were obtained:
# Experiment in all cases: glycan array binding signal (z-score within array); higher = stronger binding
# Details in all cases: glycan notation: IUPAC condensed, linker removed
# [1] = target: Fuc(a1-2)[Gal(a1-3)]Gal(b1-4)GlcNAc(b1-2)Man(a1-3)[Fuc(a1-2)[Gal(a1-3)]Gal(b1-4)GlcNAc(b1-2)Man(a1-6)]Man(b1-4)GlcNAc(b1-4)[Fuc(a1-6)]GlcNAc
# In short: (§1)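 The Consortium for Functional Glycomics database supplied 3228 glycan arrays, of which those lacking an available protein sequence were dropped. The binding signal, a within-array Z-score, was averaged across arrays of the same protein sequence and across linkers. Negative scores can be read as non-binding.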
# [2] = target: Fuc(a1-2)[Gal(a1-3)]Gal(b1-4)GlcNAc(b1-3)GalNAc
# In short: as §1
# [3] = target: Fuc(a1-2)[Gal(a1-3)]Gal(b1-4)GlcNAc(b1-3)[Fuc(a1-2)[Gal(a1-3)]Gal(b1-4)GlcNAc(b1-6)]GalNAc
# In short: as §1
# [4] = target: Fuc(a1-2)[Gal(a1-3)]Gal(b1-4)GlcNAc(b1-6)GalNAc
# In short: as §1
# [5] = target: Fuc(a1-2)[Gal(a1-3)]Gal(b1-4)[Fuc(a1-3)]Glc
# In short: as §1
# [6] = target: Fuc(a1-2)[Gal(a1-3)]Gal(b1-4)[Fuc(a1-3)]GlcNAc
# In short: as §1
# [7] = target: Fuc(a1-2)[Gal(a1-3)]Gal(b1-4)[Fuc(a1-3)]GlcNAc(b1-3)GalNAc
# In short: as §1
# [8] = target: Fuc(a1-2)[Gal(a1-4)]Gal(b1-4)GlcNAc
# In short: as §1
# [9] = target: Fuc(a1-2)[GalNAc(a1-3)]Gal
# In short: as §1
# [10] = target: Fuc(a1-2)[GalNAc(a1-3)]Gal(b1-3)GalNAc(a1-3)[Fuc(a1-2)]Gal(b1-4)GlcNAc
# In short: as §1
# [11] = target: Fuc(a1-2)[GalNAc(a1-3)]Gal(b1-3)GalNAc(b1-3)Gal(a1-4)Gal(b1-4)Glc
# In short: as §1
# [12] = target: Fuc(a1-2)[GalNAc(a1-3)]Gal(b1-3)GlcNAc
# In short: as §1
# [13] = target: Fuc(a1-2)[GalNAc(a1-3)]Gal(b1-3)GlcNAc(b1-2)Man(a1-3)[Fuc(a1-2)[GalNAc(a1-3)]Gal(b1-3)GlcNAc(b1-2)Man(a1-6)]Man(b1-4)GlcNAc(b1-4)GlcNAc
# In short: as §1
# [14] = target: Fuc(a1-2)[GalNAc(a1-3)]Gal(b1-3)GlcNAc(b1-2)Man(a1-3)[Fuc(a1-2)[GalNAc(a1-3)]Gal(b1-3)GlcNAc(b1-2)Man(a1-6)]Man(b1-4)GlcNAc(b1-4)[Fuc(a1-6)]GlcNAc
# In short: as §1
# [15] = target: Fuc(a1-2)[GalNAc(a1-3)]Gal(b1-3)GlcNAc(b1-3)GalNAc
# In short: as §1
# [16] = target: Fuc(a1-2)[GalNAc(a1-3)]Gal(b1-3)GlcNAc(b1-6)GalNAc
# In short: as §1
# [17] = target: Fuc(a1-2)[GalNAc(a1-3)]Gal(b1-4)Glc
# In short: as §1
# [18] = target: Fuc(a1-2)[GalNAc(a1-3)]Gal(b1-4)GlcNAc
# In short: as §1
# [19] = target: Fuc(a1-2)[GalNAc(a1-3)]Gal(b1-4)GlcNAc(b1-2)Man
# In short: as §1
# [20] = target: Fuc(a1-2)[GalNAc(a1-3)]Gal(b1-4)GlcNAc(b1-2)Man(a1-3)[Fuc(a1-2)[GalNAc(a1-3)]Gal(b1-4)GlcNAc(b1-2)Man(a1-6)]Man(b1-4)GlcNAc(b1-4)GlcNAc
# In short: as §1
# [21] = target: Fuc(a1-2)[GalNAc(a1-3)]Gal(b1-4)GlcNAc(b1-2)Man(a1-3)[Fuc(a1-2)[GalNAc(a1-3)]Gal(b1-4)GlcNAc(b1-2)Man(a1-6)]Man(b1-4)GlcNAc(b1-4)[Fuc(a1-6)]GlcNAc
# In short: as §1
# [22] = target: Fuc(a1-2)[GalNAc(a1-3)]Gal(b1-4)GlcNAc(b1-3)Gal(b1-4)GlcNAc
# In short: as §1
# [23] = target: Fuc(a1-2)[GalNAc(a1-3)]Gal(b1-4)GlcNAc(b1-3)Gal(b1-4)GlcNAc(b1-3)Gal(b1-4)GlcNAc
# In short: as §1
# [24] = target: Fuc(a1-2)[GalNAc(a1-3)]Gal(b1-4)GlcNAc(b1-3)GalNAc
# In short: as §1
# [25] = target: Fuc(a1-2)[GalNAc(a1-3)]Gal(b1-4)GlcNAc(b1-3)[Fuc(a1-2)[GalNAc(a1-3)]Gal(b1-4)GlcNAc(b1-6)]GalNAc
# In short: as §1
# [26] = target: Fuc(a1-2)[GalNAc(a1-3)]Gal(b1-4)GlcNAc(b1-6)GalNAc
# In short: as §1
# [27] = target: Fuc(a1-2)[GalNAc(a1-3)]Gal(b1-4)[Fuc(a1-3)]GlcNAc
# In short: as §1
# [28] = target: Fuc(a1-2)[GalNAc(a1-3)]Gal(b1-4)[Fuc(a1-3)]GlcNAc(b1-3)GalNAc
# In short: as §1
# [29] = target: Fuc(a1-2)[GalNAc(a1-4)]Gal(b1-4)GlcNAc
# In short: as §1
# [30] = target: Fuc(a1-2)[GalNAc(b1-3)]Gal
# In short: as §1
# Fuc(a1-3)GlcNAc = target: Fuc(a1-3)GlcNAc
# In short: as §1
# [31] = target: Fuc(a1-3)[Gal(b1-4)]Glc6S
# In short: as §1
# [32] = target: Fuc(a1-3)[Gal(b1-4)]GlcNAc
# In short: as §1
# [33] = target: Fuc(a1-3)[Gal(b1-4)]GlcNAc(b1-2)Man
# In short: as §1
# [34] = target: Fuc(a1-3)[Gal(b1-4)]GlcNAc(b1-2)Man(a1-3)[Fuc(a1-3)[Gal(b1-4)]GlcNAc(b1-2)Man(a1-6)]Man(b1-4)GlcNAc(b1-4)GlcNAc
# In short: as §1
# [35] = target: Fuc(a1-3)[Gal(b1-4)]GlcNAc(b1-2)Man(a1-3)[Fuc(a1-3)[Gal(b1-4)]GlcNAc(b1-2)Man(a1-6)]Man(b1-4)GlcNAc(b1-4)[Fuc(a1-6)]GlcNAc
# In short: as §1
# [36] = target: Fuc(a1-3)[Gal(b1-4)]GlcNAc(b1-3)Gal(b1-3)[Fuc(a1-4)]GlcNAc
# In short: as §1
# [37] = target: Fuc(a1-3)[Gal(b1-4)]GlcNAc(b1-3)Gal(b1-4)[Fuc(a1-3)]GlcNAc
# In short: as §1
# [38] = target: Fuc(a1-3)[Gal(b1-4)]GlcNAc(b1-3)Gal(b1-4)[Fuc(a1-3)]GlcNAc(b1-3)Gal(b1-4)[Fuc(a1-3)]GlcNAc
# In short: as §1
# [39] = target: Fuc(a1-3)[Gal(b1-4)]GlcNAc(b1-3)GalNAc
# In short: as §1
# [40] = target: Fuc(a1-3)[Gal(b1-4)]GlcNAc(b1-6)GalNAc
# In short: as §1
# [41] = target: Fuc(a1-3)[Gal(b1-4)]GlcNAc(b1-6)[Gal(b1-3)GlcNAc(b1-3)]Gal(b1-4)Glc
# In short: as §1
# [42] = target: Fuc(a1-3)[Gal(b1-4)]GlcNAc6S
# In short: as §1
# [43] = target: Fuc(a1-3)[Gal3S(b1-4)]Glc
# In short: as §1
# [44] = target: Fuc(a1-3)[Gal3S(b1-4)]GlcNAc
# In short: as §1
binder,measurement,setting,value
Pwp4 (Candida glabrata) (protein) MGSSHHHHHHSSGLVPRGSHMASVGNPITVSNVCSFPKNWHRTAGFRALTARLGIGIQSDSYKELLNYPGTFQLTTQQSSTTKPNFQISGLVGNIYGLTIVPSYLLVELTGYFVPPVSGEYTFSLEGSDDAAIIFIANPSTFKCGHVEDWPTAYDNDVTVTESIHATRTIYMIEGVAYPIRIAYYNGLSLGKLQASFTDPEGVKRVDWNGYIWRYDSCDTCSYV,glycan array binding signal (z-score),[1],-0.415
same,glycan array binding signal (z-score),[2],0.305
same,glycan array binding signal (z-score),[3],-0.423
same,glycan array binding signal (z-score),[4],-0.436
same,glycan array binding signal (z-score),[5],-0.509
same,glycan array binding signal (z-score),[6],0.205
same,glycan array binding signal (z-score),[7],1.93
same,glycan array binding signal (z-score),[8],-0.43
same,glycan array binding signal (z-score),[9],-0.541
same,glycan array binding signal (z-score),[10],-0.484
same,glycan array binding signal (z-score),[11],-0.333
same,glycan array binding signal (z-score),[12],-0.435
same,glycan array binding signal (z-score),[13],-0.315
same,glycan array binding signal (z-score),[14],-0.763
same,glycan array binding signal (z-score),[15],-0.221
same,glycan array binding signal (z-score),[16],-0.551
same,glycan array binding signal (z-score),[17],-0.552
same,glycan array binding signal (z-score),[18],-0.515
same,glycan array binding signal (z-score),[19],0.39
same,glycan array binding signal (z-score),[20],1.15
same,glycan array binding signal (z-score),[21],-0.261
same,glycan array binding signal (z-score),[22],0.146
same,glycan array binding signal (z-score),[23],-0.176
same,glycan array binding signal (z-score),[24],0.222
same,glycan array binding signal (z-score),[25],-0.536
same,glycan array binding signal (z-score),[26],-0.39
same,glycan array binding signal (z-score),[27],-0.455
same,glycan array binding signal (z-score),[28],-0.243
same,glycan array binding signal (z-score),[29],-0.271
same,glycan array binding signal (z-score),[30],-0.91
same,glycan array binding signal (z-score),Fuc(a1-3)GlcNAc,-0.522
same,glycan array binding signal (z-score),[31],0.417
same,glycan array binding signal (z-score),[32],0.547
same,glycan array binding signal (z-score),[33],-0.175
same,glycan array binding signal (z-score),[34],-0.556
same,glycan array binding signal (z-score),[35],-0.406
same,glycan array binding signal (z-score),[36],-0.319
same,glycan array binding signal (z-score),[37],-0.412
same,glycan array binding signal (z-score),[38],-0.361
same,glycan array binding signal (z-score),[39],1.8
same,glycan array binding signal (z-score),[40],-0.165
same,glycan array binding signal (z-score),[41],-0.536
same,glycan array binding signal (z-score),[42],-0.345
same,glycan array binding signal (z-score),[43],-0.392
same,glycan array binding signal (z-score),[44],-0.237
